Test results taken from the supplement of paper PMC10126150.
Sequences with one replicate were seen in a single cluster, so their values are uncertain.

Tested on: ATP
Test: switch fluorescence ratio, 500 uM ATP over buffer (Cy3 cluster intensity, sum of 5 cycles each) (fold (ratio)); higher = stronger signal-on switching upon ATP binding; sequences stand for … in TCGTCGGCAGCGTCAGATGTGTATAAGAGACAGTTTTTTTTTTTTTTTTTTTTTTTTT…TC
Conditions: aptamer strand: ATP DNA aptamer (quencher-CACCTGGGGGAGTATTGCGGAGGAAGG + anchor), 100 nM annealed; ATP concentration: 500 uM; one replicate
Summary of the method: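 For every switch-domain sequence, the fluorescence ratio is the mean of per-cluster values, each being summed target-cycle Cy3 intensity over summed buffer-cycle Cy3 intensity. Clusters outside 100-1000 RFU were excluded. On a modified Illumina MiSeq flow-cell, the Cy3-labelled switching-strand clusters were annealed to 100 nM quencher-labelled ATP aptamer, imaged in selection buffer and then after 15 min with 500 uM ATP at 22 °C. Five such cycles were run, with NaOH stripping and re-annealing between them.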
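Also: ATP exposure 15 min at 22 °C before imaging.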

| Sequence | switch fluorescence ratio |
| --- | --- |
| CACGCGCGGA | 1 |
| CTCGGACGGC | 1.01 |
| AAAAAGCCAA | 1.04 |
| TTAGTAAAAA | 1.09 |
| ACAAAGGAT | 1.01 |
| CATGCGGAAC | 1.22 |
| AGTTCGAGGT | 0.994 |
| TAGAGCCTGT | 0.971 |
| CTTGTATGTG | 1.01 |
| TCAACGAAGC | 1.1 |
| ACCATCGCGT | 1.01 |
| AAAGAATTAC | 1.12 |
| GCTTGACCGG | 1.03 |
| TCTTACTCT | 0.981 |
| AGGACGCTCC | 1.07 |
| CGCCTTCTCC | 2.27 |
| GGGCATAGCG | 1 |
| CTTTATGGAG | 1.02 |
| CCGACCGTAG | 3.01 |
| AGCGAGTGGT | 0.999 |
| TAATATTAT | 0.991 |
| CACTGACGCT | 1.29 |
| TACTATCCTT | 1.01 |
| GAGCTAGTTG | 0.991 |
| GCGCAGTAAC | 3.03 |

| Sequence | switch fluorescence ratio |
| --- | --- |
| AGGCGATGCA | 0.995 |
| GGTATCTGGG | 1.02 |
| AGCGGGGTTG | 1.02 |
| GACATAGTTG | 0.979 |
| TTGTCGCCTT | 1.01 |
| GCATGGGTCA | 0.98 |
| CGTCGGTGGT | 0.943 |
| AACCTTGCA | 1.33 |
| TTGAGCGACG | 1.06 |
| CTCTTAATTA | 0.984 |
| CTGCGCAGGT | 0.994 |
| AAAGGGTGC | 0.99 |
| TACAACATCT | 1.06 |
| GAGTAGACGG | 0.933 |
| ATGACCTCTA | 0.989 |
| ACCGGGACGC | 1.14 |
| TCGAAACATT | 1.01 |
| TGTCTCTCCG | 1.17 |
| CCTTTGCGGA | 1.94 |
| CTCAAGCGGA | 1.41 |
| TACACGAGTT | 1.05 |
| CAGATATATT | 0.998 |
| TGATTAGAAT | 0.967 |
| GCGTATAGTC | 1.02 |
| GAGAGGGTGG | 1 |

| Sequence | switch fluorescence ratio |
| --- | --- |
| GAATAAGATG | 1.02 |
| CGACTGATGG | 0.981 |
| TATCTTCGAT | 0.961 |
| GTGCGTAATT | 1.02 |
| CCGAAGGGAG | 1.02 |
| CCAATCGGCT | 1.02 |
| TTCGGTATCA | 0.943 |
| GCAGTGCCGC | 0.979 |
| CGAAAAGGTC | 1 |
| TAAATTCGGG | 0.975 |
| AGCCACTAGT | 1.01 |
| GCAAACAGCA | 1.04 |
| CCATACAAGC | 1.12 |
| CAGGAACGGG | 0.98 |
| TTTGATCGGT | 0.947 |
| AATGGATATT | 0.984 |
| AGGCTTTACG | 0.966 |
| ACGATCGATT | 1.03 |
| GCTACATACA | 1.4 |
| ACCCACCGAC | 1.46 |
| TATTGATGCT | 1.01 |
| GTGCCTTTTT | 0.97 |
| ATCTGTTATA | 1.02 |
| TTCTTGAAGA | 1.02 |
| CATTCTTGTG | 1.05 |

| Sequence | switch fluorescence ratio |
| --- | --- |
| CCAGTAGTGC | 1.59 |
| GCCAAAAGCG | 1.05 |
| ACGCGGTGGC | 1.13 |
| TCCTATTATT | 0.976 |
| GCCTAGTATG | 0.972 |
| TTAAAGATCG | 1.07 |
| ACTGACGTTT | 1.08 |
| CGTCGTTACG | 0.992 |
| GGGATTCGTT | 0.975 |
| ATGAAGGAGA | 1.01 |
| CTTGGTCAGA | 1.01 |
| CCTGGACCCG | 1.14 |
| GGTGAATAGC | 1.02 |
| TTTCCATA | 0.998 |
| TCAAGCGAAA | 0.989 |
| AAAAAAGAGG | 1.01 |
| TCATGACTCA | 0.909 |
| TAAGACTAGA | 1.01 |
| GATACAATGG | 1.89 |
| AGGGTCTAAT | 0.969 |
| TGCTTGGGCA | 0.986 |
| TATTGGGTCT | 1.02 |
| AGGCACGGTG | 0.976 |
| GGATTATTCG | 0.971 |
| GTGGACGGGC | 1.04 |

| Sequence | switch fluorescence ratio |
| --- | --- |
| TGATGCGGCC | 1.02 |
| ACTGGACTTA | 1.19 |
| GGTGGCGGG | 1.02 |
| CGGTCAGCCA | 1 |
| GTTGGGGCT | 0.982 |
| ATACTGGATA | 1.02 |
| GCGCTATTAG | 1.23 |
| TGTAAGTTCG | 1 |
| TAAATCAAGC | 0.978 |
| TAGCTCGGCG | 1.13 |
| TTAATTGAAC | 0.977 |
| CAGACGCTTG | 1.01 |
| TAGAAGTGGA | 1.01 |
| GCCAAACAT | 1.02 |
| TGGCTACCCA | 1.26 |
| GTATGCTTTA | 0.949 |
| TCTGTTGGCT | 1.03 |
| TTAGTTTG | 1.01 |
| TTGACGGTTA | 0.988 |
| AAAGGACTTA | 1.02 |
| GTCATAGCCA | 1.04 |
| CCGAGTTAGT | 1.16 |
| CGGAGACTGC | 1.05 |
| GCAGTTGAAT | 1.03 |
| GCTTGGGCGC | 0.939 |

| Sequence | switch fluorescence ratio |
| --- | --- |
| GATGGACTGT | 1.03 |
| ACTCAGGGTC | 1.02 |
| CAATCTAGCT | 0.94 |
| AAATATCACT | 1.01 |
| CCGTTAAAAC | 1.35 |
| GTCAGCGCGC | 1.04 |
| GGCGACCC | 1.09 |
| CTGCCGGGAA | 1.04 |
| CGTAAGTCGG | 0.887 |
| CCTTGAAGAA | 0.982 |
| CAACGAAGGT | 1.01 |
| CTCAATACTA | 2.2 |
| CAAGGTATTT | 0.963 |
| ATTTCCCCCC | 1.16 |
| AATACGCTTT | 1.06 |
| TTAACGGAG | 0.99 |
| TGGGAGCCGG | 1.05 |
| CATGGTTGTC | 1.02 |
| TGGTGAACAT | 1.01 |
| AGATTACCTC | 1.03 |
| GACGCATGCT | 2.79 |
| TTCAAGCCTA | 0.993 |
| TTGTGGGACG | 1 |
| GACTTCGGGT | 0.929 |
| TTCGATGGAG | 1.02 |

| Sequence | switch fluorescence ratio |
| --- | --- |
| TCCTTCATAG | 1.16 |
| TCCATGCGGT | 1.01 |
| GGAAAGGGAC | 0.989 |
| AACGTCTGTT | 1.02 |
| AGCCCAGCTC | 0.979 |
| AATAGTTCTT | 1.03 |
| CGTTTGAATC | 1.02 |
| TACAGAACTC | 1.07 |
| ACTTATAGCT | 1.03 |
| GAATCGTCAC | 1.04 |
| TTCAAATACG | 1.02 |
| GCACATCCTC | 1.1 |
| TCCTTCAGCA | 3.21 |
| ATGTGAGATG | 0.975 |
| TAGAATAGGG | 1.03 |
| CGTGATAGCG | 1.04 |
| ATTATAGAAC | 0.961 |
| GCAAGGCAA | 1.02 |
| AGCGATTACA | 0.978 |
| GTGTGCTTTT | 0.987 |
| TGCCCCGATT | 1.07 |
| GAGCGAAACG | 1.03 |
| GAACCAAACT | 1.11 |
| AGAATGCCTG | 1.01 |
| TGATTATGAC | 0.952 |

| Sequence | switch fluorescence ratio |
| --- | --- |
| TACTTCTCCT | 1.02 |
| TCACGGCTTG | 0.973 |
| GCCGACTGTA | 0.989 |
| TTTAGACGG | 1.02 |
| TAAGGTCCAC | 1.03 |
| GCAATAGTGT | 1.42 |
| TGCATGGCTT | 0.951 |
| CAATTATCAC | 1.03 |
| AAGCAGCTAT | 3 |
| GATCCCGGGA | 0.975 |
| CACGATTAGA | 1.06 |
| TGTTACATGG | 0.897 |
| AAAAGATCCC | 1.02 |
| CTACTCGTGC | 0.971 |
| TGTCGGTTGG | 1 |
| GAAGTTTCTC | 1.01 |
| TGAGTTCCGT | 1.05 |
| CAATCTTTCA | 1.04 |
| TCCACGTGGT | 0.987 |
| CAAGCCCCGG | 1.1 |
| GCTTTAACCC | 1.01 |
| GGTATGTTAC | 1.04 |
| CGAAAACAGG | 1.08 |
| TGAGAAACAG | 1.05 |
| CGGTTACAAC | 1.03 |
